Data published in patent publication US20230312684A1 (PINETREE THERAPEUTICS, published 2023).

T1: VEGF165 (UniProt P15692 27-191)
T1 sequence: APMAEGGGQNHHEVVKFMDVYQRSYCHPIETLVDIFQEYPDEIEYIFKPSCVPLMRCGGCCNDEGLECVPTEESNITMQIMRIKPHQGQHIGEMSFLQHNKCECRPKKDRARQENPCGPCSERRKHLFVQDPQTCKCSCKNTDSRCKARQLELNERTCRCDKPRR

B1: SEQ ID NO: 154, b1b2-Fc (NRP2, WT, single b1b2) (Fc fusion)
chain: ENFQCNVPLGMESGRIANEQISASSTYSDGRWTPQQSRLHGDDNGWTPNLDSNKEYLQVDLRFLTMLTAIATQGAISRETQNGYYVKSYKLEVSTNGEDWMVYRHGKNHKVFQANNDATEVVLNKLHAPLLTRFVRIRPQTWHSGIALRLELFGCRVTDAPCSNMLGMLSGLIADSQISASSTQEYLWSPSAARLVSSRSGWFPRIPQAQPGEEWLQVDLGTPKTVKGVIIQGARGGDSITAVEARAFVRKFKVSYSLNGKDWEYIQDPRTQQPKLFEGNMHYDTPDIRRFDPIPAQYVRVYPERWSPAGIGMRLEVLGCGGGGSGGGGS[human IgG1 Fc left out]
B2: SEQ ID NO: 122, b1b2-Fc (NRP1, WT, single b1b2) (Fc fusion)
chain: EDFKCMEALGMESGEIHSDQITASSQYSTNWSAERSRLNYPENGWTPGEDSYREWIQVDLGLLRFVTAVGTQGAISKETKKKYYVKTYKIDVSSNGEDWITIKEGNKPVLFQGNTNPTDVVVAVFPKPLITRFVRIKPATWETGISMRFEVYGCKITDYPCSGMLGMVSGLISDSQITSSNQGDRNWMPENIRLVTSRSGWALPPAPHSYINEWLQIDLGEEKIVRGIIIQGGKHRENKVFMRKFKIGYSNNGSDWKMIMDDSKRKAKSFEGNNNYDTPELRTFPALSTRFIRIYPERATHGGLGLRMELLGCGGGGSGGGGS[human IgG1 Fc left out]

Target: T1, VEGF165

| Binder | Kd [nM] |
| --- | --- |
| B1 | 3 |
| B2 | 0.63 |
